Test results from PubChem BioAssay AID651820 (National Center for Advancing Translational Sciences (NCATS), 2012).
The whole screen tested about 340,000 compounds, of which about 12,000 (3.5%) were called active. The shares of active, inactive and inconclusive entries below differ from those in the screen. The call rests on the fitted dose curve; in most records, active means well fitted inhibition curve with a large enough effect; inconclusive means small, poorly fitted or top-dose-only effect, or another doubt; inactive means no such curve, though single readings can be large or run the other way. No potency is given beside an inconclusive call; the fits are too rough.
On the % scale 0 is the no-effect control and ±100 the full control effect; potency means the concentration at half of the fitted maximal effect; tags describe the fitted curve by direction and shape.

Assay: qHTS Assay for Inhibitors of Hepatitis C Virus (HCV)
Conditions: Huh7.5.1 HCVcc-Cre (HCVcc is cell-culture hepatitis C virus) infection, luciferase reporter, 44 h; activity change, negative = inhibition: at 41.8 µM (top of the series) unless noted
Method in brief: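 Cells seeded at 1,000/well and cultured 4 h, then compounds added followed by HCVcc-Cre virus (~0.5 moi). After 44 h further culture, luciferase substrate was added, plates held 15 min at room temperature, and luminescence read for 15 sec.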
With `COCCNc1ncnc2c1[nH]c1ccccc12` the Potency was inconclusive [inhibitor, partial curve]. In the case of `Cn1nc(C(F)(F)F)c(/C=N/OC(=O)c2ccccc2)c1SCc1ccc(Cl)cc1`, the Potency is reported as inconclusive [inhibitor, single point]. In the case of `CCN(CC)C(=O)CN1C(=O)/C(=C/c2ccccc2)SC1=S`, the Potency is reported as inconclusive [inhibitor, partial curve]. For `CCCCn1nc(C(=O)Nc2nc3c(s2)CCCC3)c2ccccc2c1=O`, the Potency was inconclusive [inhibitor, single point]. With `c1ccc2c(c1)ncn2CCN1CCCCC1` the Potency was inconclusive [inhibitor, partial curve]. With `CCOC(=O)c1ccccc1NC(=O)CSc1nnnn1C1CCCCC1` the Potency was inconclusive [inhibitor, partial curve]. With `CC(C)c1ccc(N2C(=NC(=O)C3CC3)SC3CS(=O)(=O)CC32)cc1` (stereo unspecified) the Potency was “inactive”. For `Clc1cccc(N/N=C(\Cc2nc3ccccc3[nH]2)c2ccccc2)c1`, the Potency was inconclusive [inhibitor, single point]. For `COc1ccc(C(=O)Nc2cccc(S(=O)(=O)NC3=NCCCCC3)c2)cc1`, the Potency was “inactive”. In the case of `CSc1ccccc1C(=O)C1CCCN(S(=O)(=O)c2c(C)noc2C)C1` (stereo unspecified), the Potency is reported as inconclusive [inhibitor, partial curve]. For `Cn1ccnc1SCC(=O)Nc1cc(C(F)(F)F)ccc1N1CCOCC1`, the Potency was inconclusive [inhibitor, single point]. In the case of `Cc1occc(=O)c1O`, the Potency is reported as inconclusive [inhibitor, single point]. For `C1=C(CCNc2ncnc3nc[nH]c23)CCCC1`, the Potency was active: 10 µM. With `O=C(CSC1CC(=O)N(CC(c2ccccc2)c2ccccc2)C1=O)Nc1ccc(Cl)cc1` (stereo unspecified) the Potency was inconclusive [inhibitor, single point]. For `CCN(CC)CCCOc1ccc(Cl)c(Cl)c1`, the Potency was inconclusive [inhibitor, partial curve]. In the case of `CCOc1cc(Br)cc(/C=N/NC(=O)c2cccnc2)c1O`, the Potency is reported as inconclusive [inhibitor, full curve]. With `CC1=CC(C)(C)N(C(=O)CSc2nnc(C)s2)c2ccc(C)cc21` the Potency was inconclusive [inhibitor, full curve, poor fit]. With `O=C1CC(N(Cc2cccs2)C(=O)Nc2ccccc2)C(=O)N1c1ccc(Cl)cc1` (stereo unspecified) the Potency was inconclusive [inhibitor, single point]. For `CCOC(=O)CNC(=O)c1sc2ncnc(N3CCc4ccccc4C3)c2c1C`, the Potency was “inactive”. In the case of `CC(C)N1CCC(N2CCN(C/C=C/c3ccccc3)CC2CCO)CC1` (stereo unspecified), the Potency is reported as inconclusive [inhibitor, partial curve]. With `COc1cc2c(cc1OC)CN(c1nc(CN3CCCCC3)nc3sc4c(c13)CCCC4)CC2` the Potency was active: 22.4 µM. With `CC(=O)Nc1ccc(N(CC(O)Cn2c3ccccc3c3ccccc32)S(=O)(=O)c2ccc(C)cc2)cc1` (stereo unspecified) the Potency was inconclusive [inhibitor, single point]. With `COc1cccc(NS(=O)(=O)c2ccc3c(c2)CCCN3C(C)=O)c1` the Potency was “inactive”. For `Cc1csc(Sc2ccc([N+](=O)[O-])cc2C(=O)OCC(=O)NC2CCCC(C)C2C)n1` (stereo unspecified), the Potency was inconclusive [inhibitor, full curve]. With `CSc1nc(Sc2ccccc2Cl)c2ccccc2n1` the Potency was inconclusive [inhibitor, single point]. In the case of `O=C(NC1CCCCCC1)c1c(F)c(F)c(F)c(F)c1F`, the Potency is reported as inconclusive [inhibitor, single point]. For `CCc1nc(OCC(=O)c2ccccc2)c(C#N)c2c1COC(C)(C)C2`, the Potency was inconclusive [inhibitor, partial curve]. In the case of `FC(F)(F)c1nc2nncn2c2c1CCCCC2`, the Potency is reported as inconclusive [inhibitor, single point]. With `CC(=O)c1c(C)oc2ccc(N(C(C)=O)S(=O)(=O)c3ccc(Br)cc3)cc12` the Potency was inconclusive [inhibitor, single point]. For `COc1ccc(NC(=O)COC(=O)c2ccc(OCc3c(C)noc3C)cc2)cc1OC`, the Potency was inconclusive [inhibitor, single point]. In the case of `Cc1ccc2nc(NC(=O)c3ccccc3F)sc2c1`, the Potency is reported as inconclusive [inhibitor, single point]. For `COCCOC(=O)c1c(C)oc2ccc(OC(=O)c3ccco3)cc12`, the Potency was “inactive”. For `N#CC1C(=O)NC(=O)C(C#N)C12CCCC(C(F)(F)F)C2` (stereo unspecified), the Potency was “inactive”. For `Cc1cc(C(=O)N/N=C/c2ccc3c(c2)OCO3)c(C)n1-c1ccc(F)cc1`, the Potency was inconclusive [inhibitor, partial curve]. For `CN(/N=C/c1ccccc1)C(=S)c1ccccc1`, the Potency was inconclusive [inhibitor, single point]. For `CCC1CCCCN1S(=O)(=O)c1ccc(S(=O)(=O)N(Cc2cccs2)C2CC2)cc1` (stereo unspecified), the Potency was inconclusive [inhibitor, single point]. For `COc1ccc(OC)c(NC(=O)NC2CCCc3ccccc32)c1` (stereo unspecified), the Potency was inconclusive [inhibitor, single point]. In the case of `O=C(CNc1cccc(S(=O)(=O)N2CCCC2)c1)Nc1ccc(F)cc1F`, the Potency is reported as inconclusive [inhibitor, full curve, poor fit]. In the case of `O=c1c2ccccc2nc(N/N=C/c2ccc(O)cc2)n1O`, the Potency is reported as “inactive”. In the case of `O=C(CSc1ccc(Cl)cc1)N1CCC(c2nc3ccccc3s2)CC1`, the Potency is reported as inconclusive [inhibitor, single point]. For `COc1cccc(NC(=O)CN(C)C(=O)c2cccc(S(=O)(=O)N3CCN(c4ccccc4)CC3)c2)c1`, the Potency was inconclusive [inhibitor, single point]. For `N#Cc1cccc(N=Cc2c(O)ccc3ccccc23)c1`, the Potency was “inactive”. With `CO/N=C\C(=N\Nc1ccc(OC)cc1)C(=O)c1ccccc1` the Potency was inconclusive [inhibitor, single point]. In the case of `CCOc1cc(/C=C2\C(=N)N3N=C(S(=O)(=O)CC)SC3=NC2=O)ccc1OC(=O)c1ccco1`, the Potency is reported as “inactive”. With `Cn1c(SCC(=O)c2ccccc2)nnc1-c1cccnc1` the Potency was “inactive”. For `CCN1C(=O)[C@H]2[C@@H](c3ccc(OC)cc3)N3C(=O)CN(CC4CC4)C(=O)[C@@]3(C)[C@H]2C1=O`, the Potency was active: 10 µM. With `FC(F)(F)c1cccc(Sc2nc(-c3ccccc3)nnc2C(F)(F)F)c1` the Potency was “inactive”. With `CCOC(=O)c1[nH]c(COC(=O)CCOc2ccccc2OC)c(C(=O)OCC)c1C` the Potency was “inactive”. In the case of `CCNC(=O)CN(c1ccc(Cl)cc1)S(=O)(=O)c1ccccc1`, the Potency is reported as “inactive”. In the case of `C/C(CC(=O)N1CCCC1)=N\NC(=O)c1cc2ccccc2cc1O`, the Potency is reported as “inactive”. With `CC1(CCc2ccccc2)NC(=O)N(CC(=O)Nc2ccc3c(c2)OCCO3)C1=O` (stereo unspecified) the Potency was “inactive”. For `CC(=O)Nc1ccc(NC(=O)CSc2ncc(C(=O)Nc3ccc(F)cc3)c(=O)n2C)cc1`, the Potency was “inactive”. With `CCOC(=O)c1c(NC(=O)CN2C(=O)CN(C)C2=O)sc(C)c1C` the Potency was inconclusive [inhibitor, single point]. For `Cc1nn(Cc2ccc(Cl)c(Cl)c2)c(C)c1NC(=O)c1cc(C2CC2)on1`, the Potency was inconclusive [inhibitor, single point]. In the case of `Cc1occc1C(=O)N/N=C/C=C/c1ccc(N(C)C)cc1`, the Potency is reported as inconclusive [inhibitor, partial curve]. For `Cc1c(C(=O)NC(C)c2ccccn2)oc2c(Cl)cccc12` (stereo unspecified), the Potency was inconclusive [inhibitor, single point]. In the case of `COc1ccccc1C(CNC(=O)c1cccc(S(=O)(=O)N2CCCc3ccccc32)c1)N(C)C` (stereo unspecified), the Potency is reported as inconclusive [inhibitor, single point]. With `Cc1cc(C)c2nc(SCC(=O)NNC(=O)c3ccco3)c(C)cc2c1` the Potency was inconclusive [inhibitor, partial curve, poor fit]. In the case of `Fc1cccc(Cl)c1/C=C/c1cnc2ccccc2n1`, the Potency is reported as inconclusive [inhibitor, partial curve]. In the case of `CN(C(=O)c1cccc(NC(=O)Cc2ccc(NC(=O)C3CCN(C(=O)c4ccccc4)CC3)cc2)c1)C1CCCC1`, the activity change, negative = inhibition is reported as inactive: 8.04% [at 8.37 µM]. For `O=C(Nc1cccc(C(=O)N2CCCC2)c1)C1CCC1`, the Potency was active: 0.562 µM. In the case of `CSc1ccc(CN2CCN(C(=O)COc3ccc(C)cc3)CC2)cc1`, the Potency is reported as inconclusive [inhibitor, single point]. With `CCN(CC)CCCNC(=O)c1cc(Sc2nnc(C)s2)nc2ccccc12` the Potency was inconclusive [inhibitor, single point]. In the case of `OC(C#CCN1CCCCCC1)(c1ccccc1)c1cccnc1` (stereo unspecified), the Potency is reported as “inactive”. In the case of `CCCN(CCC)S(=O)(=O)c1ccc(Cl)c(OC)c1`, the Potency is reported as “inactive”. With `CCOc1ccc(OCC(=O)Nc2cccc(S(=O)(=O)NC3=NCCC3)c2)cc1` the Potency was “inactive”. For `CCOc1ccc(-c2nc(C#N)c(NCc3ccco3)o2)cc1`, the Potency was inconclusive [inhibitor, partial curve]. With `CCOc1ccc(N2C(=O)Nc3ccccc3C2(O)C(=O)NCc2ccc(F)cc2)cc1` (stereo unspecified) the Potency was inconclusive [inhibitor, partial curve]. For `CNS(=O)(=O)c1ccc(NC(=O)c2csc(C)c2)cc1`, the Potency was “inactive”. For `O=C(OCc1cc(=O)oc2cc(O)ccc12)c1cc(S(=O)(=O)N2CCOCC2)ccc1F`, the Potency was inconclusive [inhibitor, single point]. In the case of `CCOC(=O)c1c(CN2CCNCC2)nc2ccc(Cl)cc2c1-c1ccccc1`, the Potency is reported as inconclusive [inhibitor, partial curve].
